Experimental data published in the supplement of paper PMC11417369.
± gives the standard deviation of the averaged measurements. This is one part of the list.

Each sequence was assayed on PfAP2-EXP AP2 domain (GST-tagged) (assay: gcPBM binding intensity (ln(normalized median fluorescence intensity)); higher = stronger DNA binding).
Summary of the method: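 In this array assay, P. falciparum DNA-binding domains with a GST tag, expressed in E. coli, were applied for 1 h to primer-extended double-stranded 36-bp intergenic genomic probes and negative controls on an Agilent 4 × 180k array. Bound protein was visualised with Alexa488 anti-GST antibody at 488 nm. Binding intensity is the highest Masliner-normalised natural-log median intensity across replicate spots of either probe orientation.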

Row | Sequence | gcPBM binding intensity (ln)
1 | TGTAAAACTGAAAAGGGTACATATAAATATATATAT [XGTACX_site69] | 9.285 ± 0.021
2 | ATATATATATCGATCTGTACATATATTTATAGACAT [XGTACX_site4236] | 9.6 ± 0.11
3 | ATATATTTATATTTATGTACATATCTTTATTTACGT [XGTACX_site6800] | 8.78 ± 0.4
4 | ATTTATTTTTATATAACACACAAAGTATAATATAAC [CACACA_site3582] | 8.39 ± 0.36
5 | TTTTTAAAAAAGTAAAGTACAAAAAAAAGGAATATC [XGTACX_site588] | 9.17 ± 0.44
6 | ATTAGTAAGAATCATTGTACATTATAATATGTGGTA [XGTACX_site1341] | 8.71 ± 0.49
7 | TGCTTCCTTAGGAATGTACACACATATATAATATGT [CACACA_site8048] | 8.47 ± 0.33
8 | ACAAGAAAATATATTTGTACATATATAATTTTATTT [XGTACX_site548] | 8.28 ± 0.35
9 | AAAGAAATACAATGATGTACATTTAAAAAAAATTAA [XGTACX_site4324] | 8.57 ± 0.42
10 | ATTCTTTTTTTTTGGAAATGTATTTTTATGTTTTGT [TGCATGCA_negctrl_site426] | 8.59 ± 0.57
11 | ATTTTAGATGAAAAAGCACACAACATATATATATAT [CACACA_site2295] | 10.1 ± 0.22
12 | GTATAATATGAACACACACACACACGCAAAAAAAAA [CACACA_site7036] | 8.68 ± 0.5
13 | ACGTTGAAGAAATACACATGCATATTCTATATATAT [TGCATGCA_site76] | 9.04 ± 0.071
14 | TATATTTTTTAAAAAGCATGCAAAAAATAATGATCA [TGCATGCA_site48] | 9.34 ± 0.39
15 | TAATATATATAAACATGTACAAATCAAAAACAAAAG [XGTACX_site4076] | 9.1 ± 0.47
16 | CTCTTATGCTAGGAAGTGCAATAGTATGGGTACCAC | 8.79 ± 0.12
17 | TCATTTTATTTTTTCACACACACATATATATATATA [CACACA_site3333] | 10.1 ± 0.33
18 | TTGCCCATTTCATTAACACACAAATGTTTATATTCT [CACACA_site4569] | 8.87 ± 0.38
19 | AATACCCATTTTAGTACACACTTAAAAAATTATTTT [CACACA_site5611] | 8.61 ± 0.18
20 | TTAACTCAAGAGTGTACACATATATATATATATATA [CACACA_site4334] | 10.2 ± 0.47
21 | AAGTATTACAACCACACACACACCTATATATTATAT [CACACA_site4158] | 8.68 ± 0.52
22 | CCAAAGAAATATAATACACACAAGAATATATTGGAT [CACACA_site6018] | 8.8 ± 0.53
23 | AATGAAAAATGTATCGTTAAAGGGTATCTTAAGGAT [XGTACX_negctrl_site222] | 8.52 ± 0.36

Row | Sequence | gcPBM binding intensity (ln)
24 | ACTTGTTTTCAATGTAAAATACAATTTTCATTTATT [CACACA_negctrl_site435] | 8.27 ± 0.32
25 | TTTTAAACAAAAAATTGTACAATTAGTGTATAATCC [XGTACX_site778] | 8.62 ± 0.12
26 | AAAAAAAAAAGACACACACACAAATACAAATACATA [CACACA_site6334] | 8.62 ± 0.64
27 | AAAGGAAATTAAAATTGATTACATATATAAAAAAAC [XGTACX_negctrl_site196] | 8.84 ± 0.47
28 | AATTTAATATAATGCACACATAAAAAAAAAAAAAAA [CACACA_site123] | 8.635 ± 0.064
29 | CTTTATTATAAGATTACACACATGTGTTATAATTTA [CACACA_site3169] | 8.4 ± 0.37
30 | TTGACCTTAAGAAGGTTGCACTAATCATTCAAAGTT | 8.13 ± 0.3
31 | CCATTTATTATTTGGGGTACATTTAATTAATATTTT [XGTACX_site5940] | 9.22 ± 0.47
32 | AATATTTTAAGGCACACACACAAAAAAAAAAAAAAA [CACACA_site2890] | 8.66 ± 0.28
33 | ATTTAAGGGGTGTATGCACACGACTATTCCGTATGA [CACACA_site4738] | 8.53 ± 0.37
34 | TAATTTAGTATCTTTACATGCGGGCATTATGTCATA [TGCATGCA_site167] | 8.57 ± 0.4
35 | CCAAAGGGGGTATACTGTACATATAGTGGTTATATA [XGTACX_site1515] | 8.95 ± 0.014
36 | TTTATTAATAGACACACACACACACGCAAAATAAAA [CACACA_site6255] | 9.01 ± 0.39
37 | ATAGGCACTTTTTGCACACGTATGAATAACAAAATA [CACACA_site5069] | 8.71 ± 0.18
38 | TGAAAATTTTAATGAGGAAATAAAATAAATATAATA [GTGCAC_negctrl_site159] | 8.45 ± 0.36
39 | TTATAGTATTTATAATGTACAAATATATTTTATTTT [XGTACX_site5015] | 8.28 ± 0.3
40 | TTGAATATTTAAAAACGTACATAAAATTATTTGATT [XGTACX_site5422] | 8.37 ± 0.38
41 | ATATATATATTTATAGTGCATTTATATTAAAATATC [GTGCAC_site9818] | 9.21 ± 0.028
42 | TCAAATAGAAAATAAAGTACTTAATTTTTAGGAACA [XGTACX_site1446] | 8.59 ± 0.41
43 | ATATATATTTATATATGTACATATTAATATATATAT [XGTACX_site1144] | 8.92 ± 0.028
44 | ATATTTATATTTTTTTGTACATATATAATTTTATAA [XGTACX_site4151] | 8.56 ± 0.35
45 | GAGCTTTGGATGAAAGCATGCGATGAATGGATAAAA [TGCATGCA_site786] | 9.14 ± 0.67
46 | AAATTAAAATATATATGTACATATATATATATATAT [XGTACX_site7844] | 10 ± 0.42

Row | Sequence | gcPBM binding intensity (ln)
47 | CTGTAAAATGTGATGGTGCATATTAATTTAGTTGTA | 8.78 ± 0.028
48 | ATTTATTTCAATAAACTTCTTTTCTTTAACAATTAC [CACACA_negctrl_site1222] | 8.46 ± 0.67
49 | TAAATAGGAAAACCTATACACACTTTAAAAAAAATA [CACACA_site1621] | 8.17 ± 0.4
50 | TAAATTAAAAAAAAAAACAAAAAAAAAGCAACAAAA [CACACA_negctrl_site1318] | 8.46 ± 0.53
51 | ATAAAAATAAATAAATGTACATATATATATATATAT [XGTACX_site1277] | 10.1 ± 0.4
52 | AACACAAATAAGTATTTGGATTATATTACATTTATA [CACACA_negctrl_site465] | 8.09 ± 0.36
53 | AAATATAAAAATAGCACACATATATACATATATATA [CACACA_site56] | 8.43 ± 0.13
54 | TGTCCAATTTTTTATCGTACATAATATATAAATAAA [XGTACX_site1705] | 8.64 ± 0.29
55 | TATTTTTCCCTATGCACACACACCGTATATATAATA [CACACA_site4758] | 9.13 ± 0.38
56 | AGTATTTCCATATGTACATGCAAAAGGAAAGATATA [TGCATGCA_site850] | 9.03 ± 0.23
57 | TATAAAAATGTGTATGTACACACTTTATTTTTAATA [CACACA_site2532] | 8.22 ± 0.23
58 | AGAAACGTAAGTTATACACACATGTCAAAAGAAAAA [CACACA_site312] | 8.79 ± 0.52
59 | CAATGTTAATATAATACACACAATATGTATTTGTCT [CACACA_site1162] | 8.35 ± 0.32
60 | ATCCATCTTTTATATAGTACTTTATAATATATATAT [XGTACX_site8064] | 9.235 ± 0.078
61 | TTGTTAATATATATATGTACTTATTTATTTATTTAT [XGTACX_site2274] | 8.51 ± 0.35
62 | TTTGAATTTTTTAACACACACATGTCTGGATATATA [CACACA_site1645] | 8.65 ± 0.45
63 | TTTTCCTTAACACACGTTTATATAAAAAATTAAAAT [XGTACX_negctrl_site115] | 8.42 ± 0.57
64 | GAAAAAAAAAAAAAAAGTACATGTCATAAATTGTAT [XGTACX_site1461] | 8.6 ± 0.47
65 | TATATATATATATAATGTACATAATAATAATACATC [XGTACX_site5587] | 9.84 ± 0.26
66 | TAGAAGCATTGACACACACACATACATACACATACA [CACACA_site6802] | 8.72 ± 0.45
67 | GTCTATAACTATTGCGCACACTTTAAAAAAAAAGAA [CACACA_site1003] | 9.055 ± 0.021
68 | CTAGACTTTATTAATTGTACATATGTGTATTTTATA [XGTACX_site480] | 8.62 ± 0.39
69 | GTTACTGCATACATAACACACATATTCAAAACCCAT [CACACA_site5856] | 8.79 ± 0.54

Row | Sequence | gcPBM binding intensity (ln)
70 | TTTTCCTTTACATAATGTACACAAAAAAAAAAAAAA [XGTACX_site716] | 8.41 ± 0.48
71 | CATCATAGAGTGGAGTGTACAAATATGTCAACATAT [XGTACX_site2264] | 8.9 ± 0.38
72 | TCTTTTTTTTGAATTTGTACATAAGACAATAAAAAA [XGTACX_site4682] | 8.32 ± 0.35
73 | AATACAGACAGACACACACACAAAATAAAATACAAA [CACACA_site245] | 8.77 ± 0.52
74 | ATAAAAAAATCAGACACACACACGTAAACCCATACA [CACACA_site2773] | 8.74 ± 0.57
75 | ACATATTTATATATGTGTACATAAATATTCTTTTAA [XGTACX_site8238] | 8.06 ± 0.27
76 | CATATCCTTACGAACTGTACAATATTAAGAATAAAA [XGTACX_site1651] | 8.53 ± 0.45
77 | ATATATTCAATTCATACACACACAATTTAAGAATGA [CACACA_site9289] | 8.55 ± 0.42
78 | AAAAAAAAAAAACACACACACACACCCATATACATA [CACACA_site2664] | 8.54 ± 0.64
79 | GTAAAAAGATAATGAAGTACATTTTTTCATTTTTAT [XGTACX_site5579] | 8.19 ± 0.35
80 | ATATTAAGGTTTATATTTTAACTTATTATTTTATTC [CACACA_negctrl_site795] | 8.21 ± 0.36
81 | ATTTATTTTTTTATCACACATTTGTGAAATGTGCAT [CACACA_site5869] | 8.77 ± 0.4
82 | ATTTATTACAAATGAATGCACTATATCTTAATTTTG | 8.595 ± 0.049
83 | TAAGAAAAAAGTAAATGTACAGAGAAAATTATCTAT [XGTACX_site7374] | 8.59 ± 0.4
84 | ATAATTTTGATTATCACACATATATATATATATATG [CACACA_site5882] | 8.57 ± 0.4
85 | ATATATTTCCTGAGGAGTACTATGAAAGACAAAAAA [XGTACX_site5628] | 8.7 ± 0.47
86 | AAAAAAATTCTGACTTGTACATATAAAATTTACAAA [XGTACX_site4408] | 7.95 ± 0.26
87 | GATTTTTAAAATATCACACATAAAAAAAAAAAAAAA [CACACA_site5516] | 8.21 ± 0.54
88 | TTTGTCATTTTATTATGTACTCAGCATATAGGGGGG [XGTACX_site505] | 10.7 ± 0.13
89 | TAATTTAATAATTAGACACACATGTGGAAAATAAAA [CACACA_site5401] | 8.98 ± 0.53
